Hit rate of the full screen: of about 390,000 compounds, about 55 (0.01%) were called active. The shares of active, inactive and inconclusive entries below differ from those in the screen. Calls come from the whole dose curve; as a rule, active = well fitted inhibition curve with a large enough effect; inconclusive = small, poorly fitted or top-dose-only effect; inactive = no such curve, though single readings can be large or run the other way. Potencies beside an inconclusive call are fits to weak or partial responses and may not hold up.
These molecules were tested against Thioredoxin reductase 1, cytoplasmic (Rattus norvegicus) (UniProt O89049) (assay: qHTS Assay for Substrates of Mammalian Selenoprotein Thioredoxin Reductase 1 (TrxR1): qHTS). Conditions: purified TrxR1 substrate turnover, NADPH consumption readout; series mostly up to 114 µM; activity change, negative = substrate turnover: at the top concentration.
Chain of UniProt O89049 (O89049 whole entry, looked up): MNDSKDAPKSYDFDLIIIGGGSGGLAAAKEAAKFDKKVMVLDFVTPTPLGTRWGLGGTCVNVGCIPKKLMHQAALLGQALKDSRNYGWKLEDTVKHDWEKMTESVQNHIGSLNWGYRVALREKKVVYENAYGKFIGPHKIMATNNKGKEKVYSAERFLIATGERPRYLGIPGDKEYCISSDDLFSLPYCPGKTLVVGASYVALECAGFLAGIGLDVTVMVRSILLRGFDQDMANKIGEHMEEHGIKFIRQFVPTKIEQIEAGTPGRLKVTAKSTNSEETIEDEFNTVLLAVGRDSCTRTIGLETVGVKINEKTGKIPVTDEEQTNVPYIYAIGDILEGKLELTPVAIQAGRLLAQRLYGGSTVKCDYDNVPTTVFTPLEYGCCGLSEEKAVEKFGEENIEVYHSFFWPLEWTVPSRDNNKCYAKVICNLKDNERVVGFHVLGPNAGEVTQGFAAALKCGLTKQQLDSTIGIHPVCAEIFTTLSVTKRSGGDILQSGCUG
How it was run: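 Rat TrxR1, dispensed at 90 nM, was prereduced with 400 uM NADPH (final) for 5 min at ~22 deg C, then incubated with compound 15 min before 400 uM selenite. A first-read NADPH fluorescence drop versus no-compound background flagged substrates.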
With COC(=O)c1cc(C(=O)c2cc(F)ccc2O)cn2c(=O)c3c(C)c(C)sc3nc12 the “activity change, negative = substrate turnover” value (“activity change” below) was inactive: -1.23% [at 57.1 µM]. CCN1C(=O)/C(=C\N(C(C)=O)c2ccccc2)OC1=S was tested, and the “activity change” value was inactive: 2.09%. With Cn1nc(-c2ccc(F)cc2)nc2c(=O)n(C)c(=O)nc1-2 the Potency was active: 22.4 µM. Cc1ccc(NC(=O)CSc2nccn2Cc2ccco2)c(C)c1 was tested, and the Potency was inconclusive: 39.8 µM [inhibitor, single point]. For CN1CCC/C1=C/C=C1\SC(=S)NC1=O, the Potency was inconclusive: 56.2 µM [inhibitor, partial curve, poor fit]. For O=C(NCc1ccccc1)C1=C[C@@H](C2CCCCC2)C[C@@H](OCc2ccc(CO)cc2)O1, the Potency was inconclusive: 89.1 µM [inhibitor, single point]. With O=[N+]([O-])c1ccc(/C=N/Nc2ncc(-c3ccccc3)cn2)cc1 the Potency was inconclusive: 39.8 µM [inhibitor, partial curve, poor fit]. For COCCOC(=O)C1=C(C)NC(C)=C(C(=O)OC(C)C)C1c1cccc([N+](=O)[O-])c1 (configuration not stated), the Potency was inconclusive: 15.8 µM [inhibitor, partial curve, poor fit]. With NCCS the Potency was inconclusive: 20 µM [inhibitor, partial curve]. For COC(=O)c1ccc(NC(=O)N2CCc3c([nH]c4ccccc34)C2c2ccc(C)cc2)cc1 (configuration not stated), the Potency was inconclusive: 39.8 µM [inhibitor, single point]. In the case of Cc1cc(C(=O)N/N=C/c2ccc[nH]2)no1, the Potency is reported as inconclusive: 79.4 µM [inhibitor, partial curve, poor fit]. For COc1cccc(CCNC(=O)CC2C(=O)NCCN2CC(C)(C)C)c1 (configuration not stated), the Potency was inconclusive: 100 µM [inhibitor, single point]. With Cc1ccc(NC(=O)CSc2nnc(C)n3c2cc2sccc23)c(C)c1 the “activity change” value was inactive: -4.67%. COC(=O)[C@@H](N)Cc1ccc(O)c(O)c1 was tested, and the Potency was inconclusive: 37.7 µM [inhibitor, partial curve, poor fit]. In the case of COc1cc(/C=C(\C#N)C(=O)c2ccc(O)c(O)c2)cc(I)c1O, the Potency is reported as inconclusive: 11.9 µM [inhibitor, partial curve, poor fit]. COc1ccc(S(=O)(=O)NC2CCCC2)cc1C(N)=O was tested, and the Potency was inconclusive: 28.2 µM [inhibitor, single point]. For COCCN1C=C2C(=O)C(C)(OC(=O)CCC(=O)OC)C(=O)C(Br)=C2C=C1c1ccc(OC)cc1 (configuration not stated), the Potency was inconclusive: 89.1 µM [inhibitor, partial curve, poor fit]. With COCCCNc1nnc(Cc2ccccc2)c2ccccc12 the Potency was inconclusive: 89.1 µM [inhibitor, single point]. With O=C(Nc1ccc(N2CCCCC2)cc1)c1ccccn1 the Potency was inconclusive: 89.1 µM [inhibitor, single point]. In the case of COc1ccc(Cl)cc1C(=O)NCc1ccco1, the Potency is reported as inconclusive: 89.1 µM [inhibitor, single point]. In the case of COc1ccc(OC)c(NS(=O)(=O)c2ccc(-n3cccn3)cc2)c1, the Potency is reported as inconclusive: 39.8 µM [inhibitor, single point]. In the case of Cc1ccccc1Cn1c(=O)n(Cc2ccco2)c(=O)c2sc3ccccc3c21, the “activity change” value is reported as inactive: 0.366%. In the case of CN(C)c1ccc(P(=O)(COc2ccc([N+](=O)[O-])cc2)c2ccc(N(C)C)cc2)cc1, the Potency is reported as inconclusive: 0.794 µM [inhibitor, partial curve, poor fit]. For CCC(C)(C)NC(=O)C(c1ccc(O)cc1)N(Cc1ccco1)C(=O)CCC(=O)Nc1ccccn1 (configuration not stated), the Potency was inconclusive: 89.1 µM [inhibitor, single point]. In the case of CCC(C)Nc1ccc(NC(C)CC)cc1 (configuration not stated), the Potency is reported as inconclusive: 0.708 µM [inhibitor, full curve, poor fit]. With O=[n+]1c2c(n([O-])c3cc(F)c(N4CCCC4)cc31)CCCC2 the Potency was inconclusive: 44.7 µM [inhibitor, partial curve, poor fit]. In the case of Cc1cccc(N(CC(=O)Nc2ccc(Br)cc2)S(C)(=O)=O)c1C, the “activity change” value is reported as inactive: 0.706% [at 57.1 µM]. For CCN(CC)c1ccc(NC(=O)c2ccccc2Br)cc1S(=O)(=O)Nc1ccccc1OC, the “activity change” value was inactive: -4.79%. For CN1CCN(/C=N/c2sc3c(c2C#N)CCCCC3)CC1, the Potency was inconclusive: 5.62 µM [inhibitor, partial curve, poor fit]. CCC1CCCCN1CCCNC(=O)C1CCCN(S(=O)(=O)N2CC(C)CC(C)C2)C1 (configuration not stated) was tested, and the Potency was inconclusive: 89.1 µM [inhibitor, partial curve, poor fit]. In the case of C[C@H](NC(=O)c1nc[nH]c1C(=O)NCc1ccc(CNC(=O)OC(C)(C)C)cc1)C(=O)OCc1ccccc1, the “activity change” value is reported as inactive: -3.34%. CCCCCCC/C=N/Nc1nnc(Cc2ccccc2)c(=O)[nH]1 was tested, and the Potency was inconclusive: 28.2 µM [inhibitor, single point]. With COc1ccc(/C=C(/NC(=O)c2ccco2)C(=O)N2CCCCC2)cc1 the “activity change” value was inactive: -8.52%. O=S(=O)(NCc1ccc2c(c1)OCO2)c1c(F)cc(F)cc1Br was tested, and the Potency was inconclusive: 89.1 µM [inhibitor, single point]. Cc1ccc(NC(=O)NCCc2c(C)nn(C)c2C)c(Cl)c1 was tested, and the “activity change” value was inactive: 5.62% [at 57.1 µM]. In the case of COc1ccc(CC(=O)NCCCc2ccccc2)cc1OC, the Potency is reported as inconclusive: 35.5 µM [inhibitor, partial curve, poor fit]. With COc1ccc(/C=C2\Oc3cc(OCC(=O)N4CC(O)C[C@H]4C(=O)O)ccc3C2=O)c(OC)c1OC (some centres not stated) the Potency was inconclusive: 89.1 µM [inhibitor, partial curve, poor fit]. CC(=O)Oc1ccc2c(c1)O/C(=C\c1ccncc1)C2=O was tested, and the Potency was inconclusive: 50.1 µM [inhibitor, partial curve, poor fit]. For Oc1cc2c(cc1O)C(c1ccccc1)CNCC2 (configuration not stated), the Potency was inconclusive: 2.99 µM [inhibitor, full curve, poor fit]. In the case of Cc1cc(C)c2c(N)c(C(=O)c3ccccc3)oc2n1, the “activity change” value is reported as inactive: -10.2%. With CN1C(=O)/C(=C\C=C2/CCCN2C)N(C)C1=S the Potency was inconclusive: 89.1 µM [inhibitor, single point]. In the case of Cc1noc(C)c1NC(=O)N(C)C[C@H]1Oc2c(NC(=O)C3CC3)cccc2C(=O)N([C@H](C)CO)C[C@@H]1C, the “activity change” value is reported as inactive: 4.33% [at 57.1 µM].

— PubChem BioAssay AID588456 (National Center for Advancing Translational Sciences (NCATS), 2011)
% is set by controls: 0 for no effect and ±100 for the full control effect; potency is the fitted concentration of half-maximal effect; tags give direction and shape of the fitted curve.
Note: nearly all actives have a fitted effect of over 50% in size.
